In the supplement of paper PMC9433436:
± gives the standard deviation of the averaged measurements. The full ranking holds about 4,100 sequences; the median of “relative kcat/Km (krel) vs genomic leader AAAGAU” is about 1.7, and the highest 2% start at about 6.5. This is a selection; strong and weak results do not stand in their true shares.

Target: T1, E. coli RNase P holoenzyme (M1 P RNA + rnpA protein) (UniProt P0A7Y8)
T1 sequence: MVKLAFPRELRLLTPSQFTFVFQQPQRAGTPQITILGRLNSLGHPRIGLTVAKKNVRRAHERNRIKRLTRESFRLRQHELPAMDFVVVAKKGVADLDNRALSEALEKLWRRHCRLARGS
Assay: relative kcat/Km (krel) vs genomic leader AAAGAU (relative (reference leader = 1)); higher = faster RNase P cleavage
Experimental: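 HTS-Kin: a pool of ptRNA-Met (21C construct) with all 4096 combinations of 5' leader nucleotides N(-6) to N(-1) was processed in vitro by E. coli RNase P (P RNA + rnpA/C5 protein) under multiple-turnover conditions at 37 C, pH 8, 17.5 mM MgCl2. Residual substrate was Illumina-sequenced at several fractions reacted, and relative kcat/Km (krel) was computed by internal competition kinetics, calibrated to the genomic leader (AAAGAU = 1). The listed hexamer is the varied N(-6)..N(-1) leader (DNA letters), and it sits between a fixed 5' stem-loop flank (GCAUGCACGAAAGUGCGUGCUAUGAA) and the mature tRNA-Met starting GGCUACGUAGCUCAGUUGG. Two technical replicates are averaged.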

[1] = fraction of substrate reacted: ~9-10% (9.79% repeat 1, 9.1% repeat 2)
[2] = fraction of substrate reacted: ~13-16% (15.68% repeat 1, 13.17% repeat 2)
[3] = fraction of substrate reacted: ~26-29% (28.66% repeat 1, 26.4% repeat 2)

Row | Sequence | relative kcat/Km [1] | relative kcat/Km [2] | relative kcat/Km [3]
1 | CGCTAA | 3.07 ± 0.43 | 3.99 ± 1.2 | 5.96 ± 2.3
2 | TCAGTA | 1.24 ± 1.1 | 1.27 ± 0.45 | 1.99 ± 0.47
3 | TGCTAT | 2.93 ± 0.94 | 2.69 ± 0.56 | 3.79 ± 1.5
4 | ATGTAT | 2.32 ± 0.64 | 2.78 ± 0.84 | 4.4 ± 1.9
5 | TCCGTC | 2.65 ± 1.1 | 3.6 ± 0.8 | 5.41 ± 1.8
6 | GCAGCT |  |  | 0.729 ± 0.21
7 | CATCGT |  |  | 1.54 ± 1.2
8 | GCCGGT |  |  | 2.64 ± 2.5
9 | GTCAAC | 4.47 ± 1.7 | 5.05 ± 1.3 | 
10 | TAATAT | 3.78 ± 1.4 | 5.05 ± 0.28 | 7.45 ± 3.4
11 | CCTAGC | 1.61 ± 0.43 | 2.18 ± 0.98 | 2.91 ± 1
12 | CATGTC | 1.46 ± 0.49 | 1.67 ± 0.4 | 1.74 ± 0.59
13 | CCCCGT |  |  | 1.1 ± 0.098
14 | AAACGC |  | 1.77 ± 0.37 | 1.66 ± 0.27
15 | ACTACA | 1.5 ± 0.072 | 1.47 ± 0.021 | 1.67 ± 0.56
16 | AGGTAA | 1.01 ± 0.44 | 1.09 ± 1 | 1.2 ± 0.29
17 | GTTCGC | 3.05 ± 0.95 | 3.41 ± 0.8 | 4.63 ± 1.6
18 | CGACGA | 2.51 ± 0.82 | 2.93 ± 0.75 | 4.27 ± 1.3
19 | GCGTTC | 1.8 ± 0.31 | 1.35 ± 0.18 | 2.35 ± 0.77
20 | CAGACA | 2.14 ± 0.6 | 1.9 ± 0.48 | 2.14 ± 0.51
21 | CAGCAG | 1.82 ± 1.6 |  | 2.17 ± 0.34
22 | AGGCAT | 1.34 ± 0.18 | 2.016 ± 0.015 | 2.37 ± 0.98
23 | ACCCAT | 2.43 ± 0.83 | 2.95 ± 0.91 | 5.63 ± 2.4
24 | TGTATA | 2.17 ± 0.21 | 2.75 ± 0.05 | 4.46 ± 1.7
25 | AACCTT | 2.69 ± 0.62 | 3.09 ± 0.28 | 3.96 ± 1.6

Row | Sequence | relative kcat/Km [1] | relative kcat/Km [2] | relative kcat/Km [3]
26 | AAGAGC | 2.01 ± 1.4 | 1.51 ± 1 | 1.44 ± 0.59
27 | CGGAGT | 0.901 ± 0.67 |  | 0.911 ± 0.33
28 | ATACAA | 1.75 ± 1.1 | 1.77 ± 0.56 | 2.89 ± 0.85
29 | CGCCAC | 2.83 ± 1 | 3.31 ± 0.42 | 5.23 ± 2
30 | GGACGA | 2.09 ± 0.84 | 1.76 ± 0.19 | 3.1 ± 0.59
31 | AGCCAG |  |  | 2.09 ± 0.17
32 | CCTAAT | 2.2 ± 0.41 | 3 ± 1.2 | 3.71 ± 1.5
33 | TTTCAA | 2.81 ± 1.9 | 2.95 ± 0.37 | 4.9 ± 2.3
34 | GTGCCA | 0.534 ± 0.045 |  | 
35 | GTTTCA | 2.031 ± 0.017 | 2.33 ± 0.61 | 3.07 ± 1.4
36 | ACATAC | 3.09 ± 1.3 | 3.78 ± 0.48 | 6.1 ± 2.7
37 | AGCTCC | 2.59 ± 0.77 | 2.42 ± 0.76 | 3.39 ± 0.93
38 | TTAGAT | 1.88 ± 0.57 | 2.14 ± 0.17 | 2.8 ± 1.2
39 | TTCTTG | 1.95 ± 1.7 | 1.96 ± 0.17 | 4 ± 1.1
40 | CGCGGG | 0.135 ± 0.028 |  | 0.258 ± 0.092
41 | AAATGA | 1.72 ± 0.08 | 2.3 ± 0.48 | 3.26 ± 0.6
42 | GCATGG |  |  | 0.667 ± 0.047
43 | AGGGCG |  |  | 0.407 ± 0.03
44 | GACTTA | 3.03 ± 0.62 | 4.15 ± 0.96 | 5.78 ± 2.2
45 | ATCATC | 3.27 ± 0.66 | 4.72 ± 0.78 | 6.25 ± 2.5
46 | CTATAA | 3.33 ± 1.3 | 3.72 ± 0.51 | 4.92 ± 1.3
47 | CCTCAT | 3.36 ± 1.2 | 3.53 ± 1.4 | 4.91 ± 1.8
48 | ACTTGA | 1.99 ± 0.17 | 3.34 ± 0.94 | 4.47 ± 1.9
49 | GGAGTT | 1.4 ± 0.32 | 1.48 ± 0.098 | 1.69 ± 1.1
50 | ATGAGC | 1.07 ± 0.46 | 0.565 ± 0.33 | 0.952 ± 0.33

Row | Sequence | relative kcat/Km [1] | relative kcat/Km [2] | relative kcat/Km [3]
51 | TCATCC | 3.59 ± 1.3 | 3.87 ± 1.3 | 5.31 ± 2.2
52 | CTAGAA | 1.96 ± 0.038 | 2.24 ± 0.15 | 3.47 ± 0.95
53 | TCATAG | 1.97 ± 1.4 | 1.66 ± 0.34 | 3.6 ± 0.47
54 | GCGATT | 0.996 ± 0.34 | 1.5 ± 0.55 | 1.68 ± 0.66
55 | CTCTCC | 3.04 ± 0.91 | 4.91 ± 0.6 | 6.17 ± 2.2
56 | ATCGGA | 0.168 ± 0.15 | 0.728 ± 0.66 | 1.28 ± 1.1
57 | CTATTA | 2.6 ± 0.88 | 2.36 ± 0.19 | 3.23 ± 0.97
58 | ATTATC | 2.48 ± 1.3 | 2.23 ± 0.16 | 3.06 ± 1.4
59 | TAGTTT | 2.38 ± 0.77 | 3.06 ± 0.42 | 4.05 ± 2.3
60 | TTCGTG |  | 0.287 ± 0.27 | 2.01 ± 0.17
61 | ACCTTC | 2.69 ± 1.4 | 2.74 ± 0.55 | 4.18 ± 1.4
62 | AAGCCC | 0.958 ± 0.2 | 0.906 ± 0.67 | 0.988 ± 0.31
63 | TTAACT | 1.58 ± 0.78 | 1.54 ± 0.2 | 2.03 ± 0.47
64 | CGTCCT | 2.14 ± 0.34 | 2.06 ± 0.17 | 3 ± 1.2
65 | CGAAGC | 2 ± 1.9 | 1.89 ± 0.033 | 2.25 ± 0.35
66 | GGAAGA | 2.26 ± 0.31 | 2.24 ± 0.41 | 3.83 ± 0.61
67 | CTATTG |  |  | 0.916 ± 0.74
68 | TCGAGC | 2.77 ± 0.86 | 2.65 ± 1.1 | 2.82 ± 0.59
69 | GGTTAG |  |  | 2.2 ± 0.25
70 | GAGCCA | 2.01 ± 1.3 | 0.881 ± 0.61 | 1.7 ± 0.28
71 | GCATCC | 1.35 ± 0.49 | 1.42 ± 0.14 | 2.87 ± 0.81
72 | CAACGC | 1.85 ± 0.72 | 1.39 ± 0.028 | 2.4 ± 0.8
73 | TGACCG |  |  | 0.911 ± 0.05
74 | GTGCCT | 1.49 ± 0.64 | 0.349 ± 0.057 | 1.05 ± 0.21
75 | GCGCGA | 1.02 ± 0.98 | 0.82 ± 0.55 | 1.61 ± 0.45

Row | Sequence | relative kcat/Km [1] | relative kcat/Km [2] | relative kcat/Km [3]
76 | TCTGAA | 1.92 ± 0.47 | 2.38 ± 0.57 | 2.97 ± 1.1
77 | TACGGG |  |  | 1.33 ± 1.2
78 | TACGGA | 0.765 ± 0.61 | 1.48 ± 1.2 | 1.64 ± 1.4
79 | TCGGAC | 2.06 ± 1.7 | 1.47 ± 0.48 | 1.85 ± 0.66
80 | GTAACC | 2.15 ± 1.4 | 1.07 ± 0.27 | 1.79 ± 0.34
81 | AGCGGC | 0.718 ± 0.35 | 1.28 ± 1.2 | 1.33 ± 1.2
82 | GCATAC | 1.55 ± 0.17 | 2.46 ± 0.94 | 4.24 ± 1.6
83 | GATGTT | 0.712 ± 0.68 |  | 1.4 ± 0.85
84 | CAGTTC | 2.07 ± 1.6 | 2.19 ± 0.32 | 2.95 ± 0.31
85 | CGAGAA | 2.31 ± 0.19 | 2.21 ± 1.4 | 3.15 ± 1.6
86 | CCCTGC | 2.87 ± 1.4 | 3.39 ± 0.2 | 5.06 ± 1.6
87 | GGGCCA | 1.48 ± 0.33 | 0.452 ± 0.2 | 1.04 ± 0.54
88 | GCGACC | 1.21 ± 0.73 | 0.862 ± 0.33 | 1.13 ± 0.19
89 | AAGCTT | 1.46 ± 0.64 | 1.37 ± 0.038 | 1.61 ± 0.014
90 | CCCCCT | 2.27 ± 1.8 | 1.25 ± 0.29 | 1.95 ± 0.15
91 | CGCCGG | 0.48 ± 0.17 |  | 1.15 ± 0.32
92 | CGGGAA | 1.33 ± 0.59 | 1.32 ± 0.29 | 1.29 ± 0.09
93 | TATAGG |  |  | 1.41 ± 0.5
94 | GCTAGC | 1.3 ± 0.3 | 1.57 ± 0.38 | 1.92 ± 0.22
95 | CTCGAG | 1.8 ± 0.06 | 1.72 ± 1.4 | 3.97 ± 1.3
96 | ATCTGC | 3.18 ± 0.4 | 3.94 ± 1.9 | 6.13 ± 3
97 | TCGATC | 2.27 ± 0.09 | 2.62 ± 1.1 | 3.96 ± 1.3
98 | GGTCGA | 1.03 ± 0.9 | 2.26 ± 0.98 | 3.2 ± 1.3
99 | AGACTC | 2.45 ± 1.3 | 2.19 ± 0.25 | 2.4 ± 0.29
100 | ACCGAG | 2.58 ± 2.5 | 0.833 ± 0.22 | 2.44 ± 0.21
